# In the supplement of paper PMC8728848:
# Some of the results follow.
# B1: PX9961C-bth-497-22-497 (Bacteroides thetaiotaomicron) (protein)
# chain: DWLDLNTTSSVETGQAIVTLDDAQIALNGIYRLASGHSYYGDNYWYYGDCRAADVQARITKGDGKRVSPYYEYNVLASDNLNIVLPWNTVYKVIRQTNNLIQKIESGSIQSSDTKELNRIKSEALVMRGLSLFNLTRLFGMPYTNDKGASLGVPIETSPSDPTHKPSRSTVAQCYEQVVSDMSNALSGLRQETSNGYINYWAAQALLSRVYLNMGEYQKAYDAATDVIKNNGGRYQLYSYEEYPNVWGQDFQSESLFELYITLSEPSGGTGGEGAPMVYANEATVDWNNLILSEDFLNLLNEDPKDVRHCLTKESVIENNTGLPAAAMHEKVYLAKFPGKTGDDPKTNNICIIRLSEVYLNAAEAGLKKGTDIEEAQGYLNDIISRRTTDTSQQVSTETFTLDRILKERRKELVGEGEVFYDYLRNGLAIERKGSWHLETLKASNAQKIEATDLRIALPIPQSEIDANPNIQQNPR
# How the values were obtained:
# Test in all cases: glycan array binding signal (z-score within array); higher = stronger binding
# Conditions in all cases: glycan notation: IUPAC condensed, linker removed
# [1] = target: Gal(b1-4)GlcNAc(b1-2)[Gal(b1-4)GlcNAc(b1-4)]Man(a1-3)[GlcNAc(b1-4)][Gal(b1-4)GlcNAc(b1-2)Man(a1-6)]Man(b1-4)GlcNAc(b1-4)GlcNAc
# Outline: (§1)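 Glycan array data came from 3228 arrays in the Consortium for Functional Glycomics database, and only arrays with an available protein sequence were kept. Glycan names were put into IUPAC-condensed notation, and columns mapping to the same glycan were averaged. The binding signal is a within-array Z-score, averaged across arrays of one protein sequence run at different concentrations or buffers and across linkers. A negative Z-score can be read as non-binding.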
# [2] = target: Gal(b1-4)GlcNAc(b1-2)[Gal(b1-4)GlcNAc(b1-4)]Man(a1-3)[GlcNAc(b1-4)][Gal(b1-4)GlcNAc(b1-2)[Gal(b1-4)GlcNAc(b1-6)]Man(a1-6)]Man(b1-4)GlcNAc(b1-4)GlcNAc
# Outline: as §1
# [3] = target: Gal(b1-4)GlcNAc(b1-2)[Gal(b1-4)GlcNAc(b1-6)]Man(a1-6)[Gal(b1-4)GlcNAc(b1-2)Man(a1-3)]Man(b1-4)GlcNAc(b1-4)GlcNAc
# Outline: as §1
# [4] = target: Gal(b1-4)GlcNAc(b1-2)[Gal(b1-4)GlcNAc(b1-6)]Man(a1-6)[Gal(b1-4)GlcNAc(b1-2)Man(a1-3)]Man(b1-4)GlcNAc(b1-4)[Fuc(a1-6)]GlcNAc
# Outline: as §1
# [5] = target: Gal(b1-4)GlcNAc(b1-2)[Gal(b1-4)GlcNAc(b1-6)]Man(a1-6)[GlcNAc(b1-4)][Gal(b1-4)GlcNAc(b1-2)Man(a1-3)]Man(b1-4)GlcNAc(b1-4)GlcNAc
# Outline: as §1
# [6] = target: Gal(b1-4)GlcNAc(b1-2)[Gal(b1-4)GlcNAc(b1-6)]Man(a1-6)[GlcNAc(b1-4)][Gal(b1-4)GlcNAc(b1-2)[Gal(b1-4)GlcNAc(b1-4)]Man(a1-3)]Man(b1-4)GlcNAc(b1-4)[Fuc(a1-6)]GlcNAc
# Outline: as §1
# [7] = target: Gal(b1-4)GlcNAc(b1-3)Gal(b1-3)GalNAc
# Outline: as §1
# [8] = target: Gal(b1-4)GlcNAc(b1-3)Gal(b1-3)GlcNAc
# Outline: as §1
# [9] = target: Gal(b1-4)GlcNAc(b1-3)Gal(b1-4)Glc
# Outline: as §1
# [10] = target: Gal(b1-4)GlcNAc(b1-3)Gal(b1-4)GlcNAc
# Outline: as §1
# [11] = target: Gal(b1-4)GlcNAc(b1-3)Gal(b1-4)GlcNAc(b1-2)Man(a1-3)[Gal(b1-4)GlcNAc(b1-3)Gal(b1-4)GlcNAc(b1-2)Man(a1-6)]Man(b1-4)GlcNAc(b1-4)GlcNAc
# Outline: as §1
# [12] = target: Gal(b1-4)GlcNAc(b1-3)Gal(b1-4)GlcNAc(b1-2)Man(a1-3)[Gal(b1-4)GlcNAc(b1-3)Gal(b1-4)GlcNAc(b1-2)Man(a1-6)]Man(b1-4)GlcNAc(b1-4)[Fuc(a1-6)]GlcNAc
# Outline: as §1
# [13] = target: Gal(b1-4)GlcNAc(b1-3)Gal(b1-4)GlcNAc(b1-2)[Gal(b1-4)GlcNAc(b1-3)Gal(b1-4)GlcNAc(b1-6)]Man(a1-6)[Gal(b1-4)GlcNAc(b1-3)Gal(b1-4)GlcNAc(b1-2)Man(a1-3)]Man(b1-4)GlcNAc(b1-4)GlcNAc
# Outline: as §1
# [14] = target: Gal(b1-4)GlcNAc(b1-3)Gal(b1-4)GlcNAc(b1-2)[Gal(b1-4)GlcNAc(b1-3)Gal(b1-4)GlcNAc(b1-6)]Man(a1-6)[Gal(b1-4)GlcNAc(b1-3)Gal(b1-4)GlcNAc(b1-2)Man(a1-3)]Man(b1-4)GlcNAc(b1-4)[Fuc(a1-6)]GlcNAc
# Outline: as §1
# [15] = target: Gal(b1-4)GlcNAc(b1-3)Gal(b1-4)GlcNAc(b1-3)Gal(b1-4)GlcNAc
# Outline: as §1
# [16] = target: Gal(b1-4)GlcNAc(b1-3)Gal(b1-4)GlcNAc(b1-3)Gal(b1-4)GlcNAc(b1-2)Man(a1-3)[Gal(b1-4)GlcNAc(b1-3)Gal(b1-4)GlcNAc(b1-3)Gal(b1-4)GlcNAc(b1-2)Man(a1-6)]Man(b1-4)GlcNAc(b1-4)GlcNAc
# Outline: as §1
# [17] = target: Gal(b1-4)GlcNAc(b1-3)Gal(b1-4)GlcNAc(b1-3)Gal(b1-4)GlcNAc(b1-2)Man(a1-3)[Gal(b1-4)GlcNAc(b1-3)Gal(b1-4)GlcNAc(b1-3)Gal(b1-4)GlcNAc(b1-2)Man(a1-6)]Man(b1-4)GlcNAc(b1-4)[Fuc(a1-6)]GlcNAc
# Outline: as §1
# [18] = target: Gal(b1-4)GlcNAc(b1-3)Gal(b1-4)GlcNAc(b1-3)Gal(b1-4)GlcNAc(b1-2)[Gal(b1-4)GlcNAc(b1-3)Gal(b1-4)GlcNAc(b1-3)Gal(b1-4)GlcNAc(b1-6)]Man(a1-6)[Gal(b1-4)GlcNAc(b1-3)Gal(b1-4)GlcNAc(b1-3)Gal(b1-4)GlcNAc(b1-2)Man(a1-3)]Man(b1-4)GlcNAc(b1-4)[Fuc(a1-6)]GlcNAc
# Outline: as §1
# [19] = target: Gal(b1-4)GlcNAc(b1-3)Gal(b1-4)GlcNAc(b1-3)Gal(b1-4)GlcNAc(b1-3)Gal(b1-4)GlcNAc(b1-2)Man(a1-3)[Gal(b1-4)GlcNAc(b1-3)Gal(b1-4)GlcNAc(b1-3)Gal(b1-4)GlcNAc(b1-3)Gal(b1-4)GlcNAc(b1-2)Man(a1-6)]Man(b1-4)GlcNAc(b1-4)GlcNAc
# Outline: as §1
binder,measurement,setting,value
B1,glycan array binding signal (z-score),[1],0.029
same,glycan array binding signal (z-score),[2],-0.035
same,glycan array binding signal (z-score),[3],-0.305
same,glycan array binding signal (z-score),[4],0.036
same,glycan array binding signal (z-score),[5],0.035
same,glycan array binding signal (z-score),[6],0.452
same,glycan array binding signal (z-score),[7],0.472
same,glycan array binding signal (z-score),[8],0.182
same,glycan array binding signal (z-score),[9],-0.534
same,glycan array binding signal (z-score),[10],0.061
same,glycan array binding signal (z-score),[11],1.26
same,glycan array binding signal (z-score),[12],1.04
same,glycan array binding signal (z-score),[13],2.36
same,glycan array binding signal (z-score),[14],2.08
same,glycan array binding signal (z-score),[15],0.211
same,glycan array binding signal (z-score),[16],0.401
same,glycan array binding signal (z-score),[17],1.06
same,glycan array binding signal (z-score),[18],0.32
same,glycan array binding signal (z-score),[19],0.247
